Measurements: the supplement of paper PMC12423691
The other results are listed elsewhere or left out. Binding of human transcription factors and regulators to the viral nucleoprotein by AlphaScreen, crude cell-free proteins, amounts not normalised, one pass. Fold of the Venus control; higher = more signal. No active / inactive call. Single-pass screen; sequences are the whole Swiss-Prot entries looked up by name.

B1: CTH, P32929 (protein)
chain: MQEKDASSQGFLPHFQHFATQAIHVGQDPEQWTSRAVVPPISLSTTFKQGAPGQHSGFEYSRSGNPTRNCLEKAVAALDGAKYCLAFASGLAATVTITHLLKAGDQIICMDDVYGGTNRYFRQVASEFGLKISFVDCSKIKLLEAAITPETKLVWIETPTNPTQKVIDIEGCAHIVHKHGDIILVVDNTFMSPYFQRPLALGADISMYSATKYMNGHSDVVMGLVSVNCESLHNRLRFLQNSLGAVPSPIDCYLCNRGLKTLHVRMEKHFKNGMAVAQFLESNPWVEKVIYPGLPSHPQHELVKRQCTGCTGMVTFYIKGTLQHAEIFLKNLKLFTLAESLGGFESLAELPAIMTHASVLKNDRDVLGISDTLIRLSVGLEDEEDLLEDLDQALKAAHPPSGSHS
B2: PLAGL1, Q9UM63 (protein)
chain: MATFPCQLCGKTFLTLEKFTIHNYSHSRERPYKCVQPDCGKAFVSRYKLMRHMATHSPQKSHQCAHCEKTFNRKDHLKNHLQTHDPNKMAFGCEECGKKYNTMLGYKRHLALHAASSGDLTCGVCALELGSTEVLLDHLKAHAEEKPPSGTKEKKHQCDHCERCFYTRKDVRRHLVVHTGCKDFLCQFCAQRFGRKDHLTRHTKKTHSQELMKESLQTGDLLSTFHTISPSFQLKAAALPPFPLGASAQNGLASSLPAEVHSLTLSPPEQAAQPMQPLPESLASLHPSVSPGSPPPPLPNHKYNTTSTSYSPLASLPLKADTKGFCNISLFEDLPLQEPQSPQKLNPGFDLAKGNAGKVNLPKELPADAVNLTIPASLDLSPLLGFWQLPPPATQNTFGNSTLALGPGESLPHRLSCLGQQQQEPPLAMGTVSLGQLPLPPIPHVFSAGTGSAILPHFHHAFR
B3: PAXBP1, Q9Y5B6 (protein)
chain: MFRKARRVNVRKRNDSEEEERERDEEQEPPPLLPPPGTGEEAGPGGGDRAPGGESLLGPGPSPPSALTPGLGAEAGGGFPGGAEPGNGLKPRKRPRENKEVPRASLLSFQDEEEENEEVFKVKKSSYSKKIVKLLKKEYKEDLEKSKIKTELNSSAESEQPLDKTGHVKDTNQEDGVIISEHGEDEMDMESEKEEEKPKTGGAFSNALSSLNVLRPGEIPDAAFIHAARKKRQMARELGDFTPHDNEPGKGRLVREDENDASDDEDDDEKRRIVFSVKEKSQRQKIAEEIGIEGSDDDALVTGEQDEELSRWEQEQIRKGINIPQVQASQPAEVNMYYQNTYQTMPYGSSYGIPYSYTAYGSSDAKSQKTDNTVPFKTPSNEMTPVTIDLVKKQLKDRLDSMKELHKTNRQQHEKHLQSRVDSTRAIERLEGSSGGIGERYKFLQEMRGYVQDLLECFSEKVPLINELESAIHQLYKQRASRLVQRRQDDIKDESSEFSSHSNKALMAPNLDSFGRDRALYQEHAKRRIAEREARRTRRRQAREQTGKMADHLEGLSSDDEETSTDITNFNLEKDRISKESGKVFEDVLESFYSIDCIKSQFEAWRSKYYTSYKDAYIGLCLPKLFNPLIRLQLLTWTPLEAKCRDFENMLWFESLLFYGCEEREQEKDDVDVALLPTIVEKVILPKLTVIAENMWDPFSTTQTSRMVGITLKLINGYPSVVNAENKNTQVYLKALLLRMRRTLDDDVFMPLYPKNVLENKNSGPYLFFQRQFWSSVKLLGNFLQWYGIFSNKTLQELSIDGLLNRYILMAFQNSEYGDDSIKKAQNVINCFPKQWFMNLKGERTISQLENFCRYLVHLADTIYRNSIGCSDVEKRNARENIKQIVKLLASVRALDHAMSVASDHNVKEFKSLIEGK
B4: ZNF367, Q7RTV3 (protein)
chain: MIRGFEAPMAENPPPPPPPVIFCHDSPKRVLVSVIRTTPIKPTCGGGGEPEPPPPLIPTSPGFSDFMVYPWRWGENAHNVTLSPGAAGAAASAALPAAAAAEHSGLRGRGAPPPAASASAAASGGEDEEEASSPDSGHLKDGIRRGRPRADTVRDLINEGEHSSSRIRCNICNRVFPREKSLQAHKRTHTGERPYLCDYPDCGKAFVQSGQLKTHQRLHTGEKPFVCSENGCLSRFTHANRHCPKHPYARLKREEPTDTLSKHQAADNKAAAEWLARYWEMREQRTPTLKGKLVQKADQEQQDPLEYLQSDEEDDEKRGAQRRLQEQRERLHGALALIELANLTGAPLRQ
B5: HLF, Q16534 (protein)
chain: MEKMSRPLPLNPTFIPPPYGVLRSLLENPLKLPLHHEDAFSKDKDKEKKLDDESNSPTVPQSAFLGPTLWDKTLPYDGDTFQLEYMDLEEFLSENGIPPSPSQHDHSPHPPGLQPASSAAPSVMDLSSRASAPLHPGIPSPNCMQSPIRPGQLLPANRNTPSPIDPDTIQVPVGYEPDPADLALSSIPGQEMFDPRKRKFSEEELKPQPMIKKARKVFIPDDLKDDKYWARRRKNNMAAKRSRDARRLKENQIAIRASFLEKENSALRQEVADLRKELGKCKNILAKYEARHGPL
B6: FOXS1, O43638 (protein)
chain: MQQQPLPGPGAPTTEPTKPPYSYIALIAMAIQSSPGQRATLSGIYRYIMGRFAFYRHNRPGWQNSIRHNLSLNECFVKVPRDDRKPGKGSYWTLDPDCHDMFEHGSFLRRRRRFTRQTGAEGTRGPAKARRGPLRATSQDPGVPNATTGRQCSFPPELPDPKGLSFGGLVGAMPASMCPATTDGRPRPPMEPKEISTPKPACPGELPVATSSSSCPAFGFPAGFSEAESFNKAPTPVLSPESGIGSSYQCRLQALNFCMGADPGLEHLLASAAPSPAPPTPPGSLRAPLPLPTDHKEPWVAGGFPVQGGSGYPLGLTPCLYRTPGMFFFE
B7: KDM3A, Q9Y4C1 (protein)
chain: MVLTLGESWPVLVGRRFLSLSAADGSDGSHDSWDVERVAEWPWLSGTIRAVSHTDVTKKDLKVCVEFDGESWRKRRWIEVYSLLRRAFLVEHNLVLAERKSPEISERIVQWPAITYKPLLDKAGLGSITSVRFLGDQQRVFLSKDLLKPIQDVNSLRLSLTDNQIVSKEFQALIVKHLDESHLLKGDKNLVGSEVKIYSLDPSTQWFSATVINGNPASKTLQVNCEEIPALKIVDPSLIHVEVVHDNLVTCGNSARIGAVKRKSSENNGTLVSKQAKSCSEASPSMCPVQSVPTTVFKEILLGCTAATPPSKDPRQQSTPQAANSPPNLGAKIPQGCHKQSLPEEISSCLNTKSEALRTKPDVCKAGLLSKSSQIGTGDLKILTEPKGSCTQPKTNTDQENRLESVPQALTGLPKECLPTKASSKAELEIANPPELQKHLEHAPSPSDVSNAPEVKAGVNSDSPNNCSGKKVEPSALACRSQNLKESSVKVDNESCCSRSNNKIQNAPSRKSVLTDPAKLKKLQQSGEAFVQDDSCVNIVAQLPKCRECRLDSLRKDKEQQKDSPVFCRFFHFRRLQFNKHGVLRVEGFLTPNKYDNEAIGLWLPLTKNVVGIDLDTAKYILANIGDHFCQMVISEKEAMSTIEPHRQVAWKRAVKGVREMCDVCDTTIFNLHWVCPRCGFGVCVDCYRMKRKNCQQGAAYKTFSWLKCVKSQIHEPENLMPTQIIPGKALYDVGDIVHSVRAKWGIKANCPCSNRQFKLFSKPASKEDLKQTSLAGEKPTLGAVLQQNPSVLEPAAVGGEAASKPAGSMKPACPASTSPLNWLADLTSGNVNKENKEKQPTMPILKNEIKCLPPLPPLSKSSTVLHTFNSTILTPVSNNNSGFLRNLLNSSTGKTENGLKNTPKILDDIFASLVQNKTTSDLSKRPQGLTIKPSILGFDTPHYWLCDNRLLCLQDPNNKSNWNVFRECWKQGQPVMVSGVHHKLNSELWKPESFRKEFGEQEVDLVNCRTNEIITGATVGDFWDGFEDVPNRLKNEKEPMVLKLKDWPPGEDFRDMMPSRFDDLMANIPLPEYTRRDGKLNLASRLPNYFVRPDLGPKMYNAYGLITPEDRKYGTTNLHLDVSDAANVMVYVGIPKGQCEQEEEVLKTIQDGDSDELTIKRFIEGKEKPGALWHIYAAKDTEKIREFLKKVSEEQGQENPADHDPIHDQSWYLDRSLRKRLHQEYGVQGWAIVQFLGDVVFIPAGAPHQVHNLYSCIKVAEDFVSPEHVKHCFWLTQEFRYLSQTHTNHEDKLQVKNVIYHAVKDAVAMLKASESSFGKP
B8: TCF19, Q9Y242 (protein)
chain: MLPCFQLLRIGGGRGGDLYTFHPPAGAGCTYRLGHRADLCDVALRPQQEPGLISGIHAELHAEPRGDDWRVSLEDHSSQGTLVNNVRLPRGHRLELSDGDLLTFGPEGPPGTSPSEFYFMFQQVRVKPQDFAAITIPRSRGEARVGAGFRPMLPSQGAPQRPLSTFSPAPKATLILNSIGSLSKLRPQPLTFSPSWGGPKSLPVPAPPGEMGTTPSAPPQRNRRKSVHRVLAELDDESEPPENPPPVLMEPRKKLRVDKAPLTPTGNRRGRPRKYPVSAPMAPPAVGGGEPCAAPCCCLPQEETVAWVQCDGCDVWFHVACVGCSIQAAREADFRCPGCRAGIQT
B9: TBP, P20226 (protein)
chain: MDQNNSLPPYAQGLASPQGAMTPGIPIFSPMMPYGTGLTPQPIQNTNSLSILEEQQRQQQQQQQQQQQQQQQQQQQQQQQQQQQQQQQQQQQQQQAVAAAAVQQSTSQQATQGTSGQAPQLFHSQTLTTAPLPGTTPLYPSPMTPMTPITPATPASESSGIVPQLQNIVSTVNLGCKLDLKTIALRARNAEYNPKRFAAVIMRIREPRTTALIFSSGKMVCTGAKSEEQSRLAARKYARVVQKLGFPAKFLDFKIQNMVGSCDVKFPIRLEGLVLTHQQFSSYEPELFPGLIYRMIKPRIVLLIFVSGKVVLTGAKVRAEIYEAFENIYPILKGFRKTT

Target: nucleoprotein N of Crimean-Congo hemorrhagic fever virus
Assay: AlphaScreen luminescence signal relative to Venus negative control (fold); higher = stronger binding to CCHFV N
Experimental: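 AlphaScreen binding of cell-free made, FLAG-GST-tagged human transcription factors and regulators (crude translation products) to biotinylated N protein; signal as fold of the FLAG-GST-Venus control. One pass.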

Binder	AlphaScreen luminescence signal
B1	1.16
B2	2.74
B3	1.02
B4	2.74
B5	4.19
B6	2.56
B7	2.37
B8	3.21
B9	2.09
